We go through one compound from patent US20080267996A1 (priority 2005, published 2008).

Data set [1] concerns patients with HBeAg-positive, chronic hepatitis B. In words: Adverse events and injection site reactions in the dosing regimen study (Parts 1 and 2). To be noted: Part 2 Gp A (N=21)/B (N=22)/C (N=11): 2x2 mg pSG2.HBs, 2x5×10^8 pfu MVA.HBs; lamivudine 100 mg/day. The format is in vivo, human.
The next data set relates to HBeAg. The experiment in a line: HBeAg / Anti-HBe serotyping (VITROS ECi). Format: in vivo, hepatitis B virus. Here is the method: (§1) Serotyping was performed using a VITROS ECi Immunodiagnostic System.
Another data set has as its system HBsAg. In words: HBsAg / Anti-HBs serotyping (VITROS ECi). Format: in vivo, hepatitis B virus. Here is the method:
as §1

Another data set relates to HBV DNA. The experiment in a line: Viral load (Amplicor HBV Monitor / COBAS Taqman). Format: in vivo, hepatitis B virus. To be noted: Treatment phase; Part 2 Gp A (n = 21)/B (n = 22)/C (n = 11). Here is the method:
Viral load measurements were carried out as follows:
Groups 1-3: An Amplicor HBV Monitor (Roche) was used to measure viral load, according to the manufacturer's instructions:
Sensitivity: 200 copies/mL
Groups A, B, C: The COBAS Taqman system (Roche) was used according to the manufacturer's instructions:
Sensitivity: 35 copies/mL
All viraemias above the linear range were reported as “Above maximum linear range”.

Data set [2] deals with HBs peptide pools (PreS2 + S ayw) and HbsAg protein. In words: Ex vivo IFN-gamma ELISPOT of patient PBMC. The format is in vivo, human. To be noted: Treatment phase; Part 2 Gp A (n = 21)/B (n = 22)/C (n = 11). Here is the method:
ELISPOT Assays were carried out by Cellular Technology Limited (CTL Laboratory LLC. 10515 Carnegie Ave., Suite 503 Cleveland Ohio 44106, USA) using the following assay conditions:
The following peptides were pooled and used as antigens:
The HBs series of peptides are arranged into 4 distinct pools of peptides, each containing up to 12 total peptides:
The entire HbsAg protein was also used as an antigen.
An ELISPOT response to a peptide pool (or HbsAg protein) was considered to have occurred when the mean +/− standard deviation for the peptide pool, or HbsAg protein, was greater than the mean +3 standard deviations of that patient's negative control.

The subject of data set [3] is alanine transferase (ALT). The conditions noted are these: in vivo.
The mark [4] stands for this setting: Treatment phase, Part 2 Gp A (n = 21)/B (n = 22)/C (n = 11).
[5] abbreviates: Week 14/18, Part 2 Group A (n 21)/B (n 22)/C (n 11).

In the case of `Nc1ccn([C@@H]2CS[C@H](CO)O2)c(=O)n1` [lamivudine, Lamivudine], in data set [1], the SAEs is given as 0, the “Total No. AEs” value is recorded as 4 and the “Treatment related AEs” value was determined as 1. Further, in the data set on HBeAg (setting [4]), the “HBeAg Loss (patients)” value was determined as 1 and the “HBeAg seroconversion (patients)” value came to 0. Moreover, in the data set with HBeAg (setting [5]), the “Anti Hbe+ (patients)” value was found to be 0; the “HBeAg+ (patients)” value turned out to be 8; the “HBeAg− (patients)” value is 1; the “HBeAg−, percent of patients” value is on record as 9%. In the data set with HBsAg (setting [4]), the “HBsAg Loss (patients)” value came to 1 and the “HBsAg seroconversion (patients)” value was found to be 0. In the data set with HBsAg (setting [5]), the “Anti Hbs+ (patients)” value was 1, the “HBsAg+ (patients)” value amounted to 8, the “HBsAg− (patients)” value was 1 and the “anti-HBs Seroconversion (patients)” value came to 0. In addition, the “HBV DNA <1.5 log (patients)” value with HBV DNA is given as 9. In addition, the “Immunological response (patients, ELISPOT)” value in data set [2] is reported as 5. Moreover, the “ALT Normalized (patients)” value in data set [3] is listed as 2.
